# According to PubChem BioAssay AID686978 (National Center for Advancing Translational Sciences (NCATS), 2013):
# Screen size: about 420,000 compounds; about 64,000 (15%) were called active. The shares of active, inactive and inconclusive entries below differ from those in the screen. Calls follow the shape of the dose curve; as a rule, active = well fitted inhibition curve with a large enough effect; inconclusive = small, poorly fitted or top-dose-only effect; inactive = flat fitted curve, though single readings scatter. Potencies of inconclusive entries are left out as doubtful fits.
# Assay: qHTS for Inhibitors of human tyrosyl-DNA phosphodiesterase 1 (TDP1): qHTS in cells in absence of CPT; also: nearly all actives have a fitted effect of over 55% in size
# Conditions: DT40 Tdp1-/- hTDP1 cells, no CPT, ATP luminescence, 48 h; activity change, negative = growth inhibition: at 46.2 µM (top of the series) unless noted
# Procedure, shortened: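 Chicken DT40 Tdp1-/- cells stably complemented with human TDP1 were seeded at 400 cells/well with DMSO in place of 20 nM camptothecin. After compound pinning, cells grew at least 48 hr at 37 °C; viability read by CellTiter-Glo luminescence.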
# % is scaled to controls: 0 for no effect and ±100 for the full control effect; potency is read from the fitted curve at half-maximal effect; tags tell the direction and shape of the fitted curve.
Compound,Potency,"activity change, negative = growth inhibition"
CCOC(=O)C1=C(O)/C(=C/c2cc(OC)c(O)c(OC)c2)SC1=Nc1ccc(OC)cc1,"inconclusive [inhibitor, full curve]",
O=C(Nc1ccccn1)c1ccc(S(=O)(=O)N2CCCCC2)cc1,"inconclusive [inhibitor, partial curve]",
CC(NC(=O)c1cccc(Cn2cc([N+](=O)[O-])cn2)c1)c1ccc(C(C)(C)C)cc1 (stereo not drawn),,inconclusive: -31.9% [inhibitor]
COC(=O)C1=C(C)NC(=O)/C1=C\c1cc(C)n(-c2ccccc2)c1C,"inconclusive [inhibitor, partial curve]",
O=C(Nc1cccc(S(=O)(=O)N2CCCC2)c1)c1cccc(S(=O)(=O)N2CCOCC2)c1,"inconclusive [inhibitor, single point]",
O=C(NCc1ccccn1)c1cnn(-c2ncc3c(n2)-c2ccccc2CC3)c1C1CC1,"inconclusive [inhibitor, partial curve, poor fit]",
COc1ccc(NC(=O)COC(=O)c2ccc3c(c2)OCCO3)cc1,"inconclusive [inhibitor, single point]",
O=[N+]([O-])c1cccc2ccc(/C=C/c3ccc(C(F)(F)F)cc3)nc12,"inconclusive [inhibitor, single point]",
Cc1ccc(N2CC(=O)Nc3c(oc4nc(-c5ccccc5)cc(C)c34)C2=O)cc1,,inactive: -24.4%
O=C(Oc1c(CN2CCOCC2)cc(Cl)c2cccnc12)c1ccccc1Cl,active: 2.91 µM,
CC(C)(C)OC(=O)NCCCCCNC(=O)c1[nH]cnc1C(=O)Nc1ccon1,"inconclusive [inhibitor, partial curve, poor fit]",
C[C@H](CO)N1C[C@H](C)[C@@H](CN(C)S(=O)(=O)c2ccc(Oc3ccccc3)cc2)OCc2cnnn2CCCC1=O,,inactive: 0.431%
c1ccc(CNc2ccnc(-c3cccnc3)n2)cc1,,inactive: -23.6%
CCCCNC(=O)COC(=O)C1CCN(S(=O)(=O)c2ccc3c(c2)OCCO3)CC1,,inactive: 5.87%
O=C(COc1ccc2ccccc2c1)NNC(=O)Cc1ccccc1,,inactive: -3.07%
c1ccc(N=C(c2cccs2)N2CCOCC2)cc1,"inconclusive [inhibitor, single point]",
O=C(Nc1ccc(F)cc1)NC1CCN(Cc2c(F)cccc2Cl)CC1,"inconclusive [inhibitor, single point]",
COc1ccc(OC)c(NS(=O)(=O)c2ccc(Cl)s2)c1,"inconclusive [inhibitor, single point]",
